# Some of the results follow.
# Experiments:
# Assay in all cases: glycan array binding signal (z-score within array); higher = stronger binding
# Settings in all cases: glycan notation: IUPAC condensed, linker removed
# [1] = target: Neu5Ac(a2-3)Gal(b1-4)GlcNAc(b1-3)Gal(b1-4)GlcNAc(b1-3)Gal(b1-4)GlcNAc
# In short: (§1)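 The binding signal is a Z-score computed within each array and averaged over linkers. Arrays of the same protein sequence at different concentrations or buffers were also averaged together. Data originate from 3228 arrays in the Consortium for Functional Glycomics database, kept only where the protein sequence was available.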
# [2] = target: Neu5Ac(a2-3)Gal(b1-4)GlcNAc(b1-3)Gal(b1-4)[Fuc(a1-3)]GlcNAc
# In short: as §1
# [3] = target: Neu5Ac(a2-3)Gal(b1-4)GlcNAc(b1-3)GalNAc
# In short: as §1
# [4] = target: Neu5Ac(a2-3)Gal(b1-4)GlcNAc(b1-6)[Gal(b1-3)]GalNAc
# In short: as §1
# [5] = target: Neu5Ac(a2-3)Gal(b1-4)GlcNAc(b1-6)[Neu5Ac(a2-3)Gal(b1-3)]GalNAc
# In short: as §1
# [6] = target: Neu5Ac(a2-3)Gal(b1-4)GlcNAc6S
# In short: as §1
# [7] = target: Neu5Ac(a2-3)Gal(b1-4)[Fuc(a1-3)]GlcNAc
# In short: as §1
# [8] = target: Neu5Ac(a2-3)Gal(b1-4)[Fuc(a1-3)]GlcNAc(b1-3)Gal
# In short: as §1
# [9] = target: Neu5Ac(a2-3)Gal(b1-4)[Fuc(a1-3)]GlcNAc(b1-3)Gal(b1-4)GlcNAc
# In short: as §1
# [10] = target: Neu5Ac(a2-3)Gal(b1-4)[Fuc(a1-3)]GlcNAc(b1-3)Gal(b1-4)[Fuc(a1-3)]GlcNAc(b1-3)Gal(b1-4)[Fuc(a1-3)]GlcNAc
# In short: as §1
# [11] = target: Neu5Ac(a2-3)Gal(b1-4)[Fuc(a1-3)]GlcNAc(b1-3)GalNAc
# In short: as §1
# [12] = target: Neu5Ac(a2-3)Gal(b1-4)[Fuc(a1-3)]GlcNAc(b1-6)[Gal(b1-3)]GalNAc
# In short: as §1
# [13] = target: Neu5Ac(a2-3)Gal(b1-4)[Fuc(a1-3)]GlcNAc(b1-6)[Neu5Ac(a2-3)Gal(b1-3)]GalNAc
# In short: as §1
# [14] = target: Neu5Ac(a2-3)Gal(b1-4)[Fuc(a1-3)]GlcNAc6S
# In short: as §1
# [15] = target: Neu5Ac(a2-3)Gal6S(b1-4)GlcNAc
# In short: as §1
# [16] = target: Neu5Ac(a2-3)Gal6S(b1-4)[Fuc(a1-3)]GlcNAc
# In short: as §1
# [17] = target: Neu5Ac(a2-3)GalNAc
# In short: as §1
# [18] = target: Neu5Ac(a2-3)GalNAc(b1-4)GlcNAc
# In short: as §1
# [19] = target: Neu5Ac(a2-3)[GalNAc(b1-4)]Gal(b1-4)Glc
# In short: as §1
# [20] = target: Neu5Ac(a2-3)[GalNAc(b1-4)]Gal(b1-4)GlcNAc
# In short: as §1
# [21] = target: Neu5Ac(a2-3)[GalNAc(b1-4)]Gal(b1-4)GlcNAc(b1-3)GalNAc
# In short: as §1
# [22] = target: Neu5Ac(a2-3)[Neu5Ac(a2-6)]GalNAc
# In short: as §1
# [23] = target: Neu5Ac(a2-6)Gal
# In short: as §1
# [24] = target: Neu5Ac(a2-6)Gal(b1-4)Glc
# In short: as §1
# [25] = target: Neu5Ac(a2-6)Gal(b1-4)GlcNAc
# In short: as §1
# [26] = target: Neu5Ac(a2-6)Gal(b1-4)GlcNAc(b1-2)Man(a1-3)Man(b1-4)GlcNAc(b1-4)GlcNAc
# In short: as §1
# [27] = target: Neu5Ac(a2-6)Gal(b1-4)GlcNAc(b1-2)Man(a1-3)[Gal(b1-4)GlcNAc(b1-2)Man(a1-6)]Man(b1-4)GlcNAc(b1-4)GlcNAc
# In short: as §1
# [28] = target: Neu5Ac(a2-6)Gal(b1-4)GlcNAc(b1-2)Man(a1-3)[GlcNAc(b1-2)Man(a1-6)]Man(b1-4)GlcNAc(b1-4)GlcNAc
# In short: as §1
# [29] = target: Neu5Ac(a2-6)Gal(b1-4)GlcNAc(b1-2)Man(a1-3)[GlcNAc(b1-2)Man(b1-4)GlcNAc(b1-2)Man(a1-6)]Man(b1-4)GlcNAc(b1-4)GlcNAc
# In short: as §1
# [30] = target: Neu5Ac(a2-6)Gal(b1-4)GlcNAc(b1-2)Man(a1-3)[Man(a1-6)]Man(b1-4)GlcNAc(b1-4)GlcNAc
# In short: as §1
# [31] = target: Neu5Ac(a2-6)Gal(b1-4)GlcNAc(b1-2)Man(a1-3)[Neu5Ac(a2-6)Gal(b1-4)GlcNAc(b1-2)Man(a1-6)]Man(b1-4)GlcNAc(b1-4)GlcNAc
# In short: as §1
# [32] = target: Neu5Ac(a2-6)Gal(b1-4)GlcNAc(b1-2)Man(a1-6)Man(b1-4)GlcNAc(b1-4)GlcNAc
# In short: as §1
# [33] = target: Neu5Ac(a2-6)Gal(b1-4)GlcNAc(b1-2)Man(a1-6)[Gal(b1-4)GlcNAc(b1-2)Man(a1-3)]Man(b1-4)GlcNAc(b1-4)GlcNAc
# In short: as §1
# [34] = target: Neu5Ac(a2-6)Gal(b1-4)GlcNAc(b1-2)Man(a1-6)[GlcNAc(b1-2)Man(a1-3)]Man(b1-4)GlcNAc(b1-4)GlcNAc
# In short: as §1
# [35] = target: Neu5Ac(a2-6)Gal(b1-4)GlcNAc(b1-2)Man(a1-6)[Man(a1-3)]Man(b1-4)GlcNAc(b1-4)GlcNAc
# In short: as §1
# [36] = target: Neu5Ac(a2-6)Gal(b1-4)GlcNAc(b1-3)Gal(b1-3)GlcNAc
# In short: as §1
# [37] = target: Neu5Ac(a2-6)Gal(b1-4)GlcNAc(b1-3)Gal(b1-4)GlcNAc
# In short: as §1
# [38] = target: Neu5Ac(a2-6)Gal(b1-4)GlcNAc(b1-3)Gal(b1-4)GlcNAc(b1-3)Gal(b1-4)GlcNAc
# In short: as §1
# [39] = target: Neu5Ac(a2-6)Gal(b1-4)GlcNAc(b1-3)Gal(b1-4)[Fuc(a1-3)]GlcNAc(b1-3)Gal(b1-4)[Fuc(a1-3)]GlcNAc
# In short: as §1
# [40] = target: Neu5Ac(a2-6)Gal(b1-4)GlcNAc(b1-3)GalNAc
# In short: as §1
# [41] = target: Neu5Ac(a2-6)Gal(b1-4)GlcNAc6S
# In short: as §1
# [42] = target: Neu5Ac(a2-6)GalNAc
# In short: as §1
# [43] = target: Neu5Ac(a2-6)GalNAc(b1-4)GlcNAc
# In short: as §1
# [44] = target: Neu5Ac(a2-6)GlcNAc(b1-4)GlcNAc
# In short: as §1
# [45] = target: Neu5Ac(a2-6)GlcNAc(b1-4)GlcNAc(b1-4)GlcNAc
# In short: as §1
binder,measurement,setting,value
"CTLY 1 (Homo sapiens), Q6ZS10 (protein) AITCPEGWLPFEGKCYYFSPSTKSWDEARMFCQENYSHLVIINSFAEHNFVAKAHGSPRVYWLGLNDRAQEGDWRWLDGSPVTLSFWEPEEPNNIHDEDCATMNKGGTWNDLSCYKTTYWICERKGLNDIFEAQKIEWHE",glycan array binding signal (z-score),[1],-0.245
same,glycan array binding signal (z-score),[2],-0.238
same,glycan array binding signal (z-score),[3],-0.209
same,glycan array binding signal (z-score),[4],-0.231
same,glycan array binding signal (z-score),[5],-0.228
same,glycan array binding signal (z-score),[6],-0.232
same,glycan array binding signal (z-score),[7],-0.215
same,glycan array binding signal (z-score),[8],-0.013
same,glycan array binding signal (z-score),[9],-0.122
same,glycan array binding signal (z-score),[10],1.04
same,glycan array binding signal (z-score),[11],-0.086
same,glycan array binding signal (z-score),[12],-0.209
same,glycan array binding signal (z-score),[13],-0.209
same,glycan array binding signal (z-score),[14],0.261
same,glycan array binding signal (z-score),[15],-0.212
same,glycan array binding signal (z-score),[16],-0.201
same,glycan array binding signal (z-score),[17],-0.244
same,glycan array binding signal (z-score),[18],-0.23
same,glycan array binding signal (z-score),[19],-0.257
same,glycan array binding signal (z-score),[20],-0.245
same,glycan array binding signal (z-score),[21],-0.218
same,glycan array binding signal (z-score),[22],-0.259
same,glycan array binding signal (z-score),[23],-0.253
same,glycan array binding signal (z-score),[24],-0.23
same,glycan array binding signal (z-score),[25],-0.241
same,glycan array binding signal (z-score),[26],-0.23
same,glycan array binding signal (z-score),[27],-0.253
same,glycan array binding signal (z-score),[28],-0.242
same,glycan array binding signal (z-score),[29],-0.234
same,glycan array binding signal (z-score),[30],-0.239
same,glycan array binding signal (z-score),[31],-0.236
same,glycan array binding signal (z-score),[32],-0.249
same,glycan array binding signal (z-score),[33],-0.234
same,glycan array binding signal (z-score),[34],-0.248
same,glycan array binding signal (z-score),[35],-0.237
same,glycan array binding signal (z-score),[36],-0.245
same,glycan array binding signal (z-score),[37],-0.238
same,glycan array binding signal (z-score),[38],-0.246
same,glycan array binding signal (z-score),[39],0.105
same,glycan array binding signal (z-score),[40],-0.235
same,glycan array binding signal (z-score),[41],-0.237
same,glycan array binding signal (z-score),[42],-0.248
same,glycan array binding signal (z-score),[43],-0.25
same,glycan array binding signal (z-score),[44],-0.244
same,glycan array binding signal (z-score),[45],-0.24

# Reference: the supplement of paper PMC8728848
